The list shows a part of the results, in another mix than the full data. The list includes weakly bound sequences.
Key:
Experiment in all cases: protein-binding microarray (PBM)
Conditions in all cases: PBM: ~300 nM protein, 6 mM HEPES pH 7.8, 80 mM KCl, 0.5 mM EDTA, 0.5 mM EGTA, 6% glycerol, 35 ng/ul poly-dIdC, 1% milk, 1 h, room temperature; Ap Aiptasia and Nv Nematostella (sea anemones) / Co Capsaspora / Aq Amphimedon (sponge) / Dm Drosophila / Hu human; RHD is the Rel homology domain; high values mean tight binding; most listed sequences are background and not binding sites; double strand, one strand shown
GST-Ap-NF-kB RHD = target: T1, GST-Ap-NF-kB RHD (UniProt A0A913YAJ5)
T1 sequence: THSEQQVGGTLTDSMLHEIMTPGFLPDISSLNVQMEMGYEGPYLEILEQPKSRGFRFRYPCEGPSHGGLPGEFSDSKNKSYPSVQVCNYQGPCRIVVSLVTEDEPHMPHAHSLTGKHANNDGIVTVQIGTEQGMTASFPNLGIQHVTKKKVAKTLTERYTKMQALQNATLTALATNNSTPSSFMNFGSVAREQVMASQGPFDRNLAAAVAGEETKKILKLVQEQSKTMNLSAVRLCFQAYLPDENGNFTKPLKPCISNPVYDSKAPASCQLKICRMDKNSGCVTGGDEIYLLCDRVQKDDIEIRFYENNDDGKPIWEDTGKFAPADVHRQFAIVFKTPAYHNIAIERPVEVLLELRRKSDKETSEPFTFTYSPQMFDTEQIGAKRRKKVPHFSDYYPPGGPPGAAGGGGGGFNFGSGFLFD

[1] = target: T2, GST-Nv-NF-kB (Cys allele) (UniProt E5G601)
T2 sequence: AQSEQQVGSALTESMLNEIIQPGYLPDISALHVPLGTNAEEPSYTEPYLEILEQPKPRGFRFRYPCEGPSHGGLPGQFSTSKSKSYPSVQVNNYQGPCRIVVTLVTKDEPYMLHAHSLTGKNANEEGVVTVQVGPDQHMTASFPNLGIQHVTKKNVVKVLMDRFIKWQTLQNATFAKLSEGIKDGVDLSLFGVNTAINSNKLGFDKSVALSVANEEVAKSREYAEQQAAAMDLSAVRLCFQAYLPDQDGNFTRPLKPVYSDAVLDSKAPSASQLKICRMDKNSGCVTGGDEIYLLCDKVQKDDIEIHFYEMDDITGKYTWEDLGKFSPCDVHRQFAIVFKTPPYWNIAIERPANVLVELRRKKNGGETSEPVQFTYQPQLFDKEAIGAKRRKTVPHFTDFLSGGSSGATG

GST-Co-NF-kB = target: T3, GST-Co-NF-kB (UniProt F1ARL5)
T3 sequence: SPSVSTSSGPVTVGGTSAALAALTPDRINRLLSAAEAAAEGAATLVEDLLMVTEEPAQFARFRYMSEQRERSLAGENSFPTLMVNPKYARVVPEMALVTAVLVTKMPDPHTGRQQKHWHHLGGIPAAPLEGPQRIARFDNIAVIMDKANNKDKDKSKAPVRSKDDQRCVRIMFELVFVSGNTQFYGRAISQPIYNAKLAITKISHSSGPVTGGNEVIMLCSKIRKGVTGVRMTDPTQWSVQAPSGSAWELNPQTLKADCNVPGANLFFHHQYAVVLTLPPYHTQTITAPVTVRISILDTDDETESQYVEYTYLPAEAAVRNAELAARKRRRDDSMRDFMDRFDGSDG

GST-Dm-Relish = target: T4, GST-Dm-Relish (UniProt Q94527)
T4 sequence: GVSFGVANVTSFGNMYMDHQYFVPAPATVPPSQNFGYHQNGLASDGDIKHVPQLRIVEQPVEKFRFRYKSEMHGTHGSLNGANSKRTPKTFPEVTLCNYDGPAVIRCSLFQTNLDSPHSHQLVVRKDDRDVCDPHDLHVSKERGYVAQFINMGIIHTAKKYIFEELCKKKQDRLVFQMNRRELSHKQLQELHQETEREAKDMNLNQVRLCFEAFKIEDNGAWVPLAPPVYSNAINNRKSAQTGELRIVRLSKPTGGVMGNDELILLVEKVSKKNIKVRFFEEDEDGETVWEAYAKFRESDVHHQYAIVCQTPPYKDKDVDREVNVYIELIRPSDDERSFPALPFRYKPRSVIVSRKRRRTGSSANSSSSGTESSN

GST-Aq-NF-kB = target: T5, GST-Aq-NF-kB (UniProt A9Y5G7)
T5 sequence: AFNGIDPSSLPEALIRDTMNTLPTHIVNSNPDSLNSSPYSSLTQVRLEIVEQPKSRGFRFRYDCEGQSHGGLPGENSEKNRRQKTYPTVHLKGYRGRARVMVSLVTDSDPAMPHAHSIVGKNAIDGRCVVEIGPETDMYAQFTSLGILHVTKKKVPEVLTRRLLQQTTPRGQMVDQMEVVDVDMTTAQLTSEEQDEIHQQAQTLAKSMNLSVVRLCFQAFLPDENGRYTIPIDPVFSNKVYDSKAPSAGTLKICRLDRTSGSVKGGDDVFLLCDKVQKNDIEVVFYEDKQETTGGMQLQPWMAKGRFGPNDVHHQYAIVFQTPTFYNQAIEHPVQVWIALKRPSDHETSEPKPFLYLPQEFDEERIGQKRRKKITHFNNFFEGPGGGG

Sequence	binding signal (GST-Ap-NF-kB RHD)	binding signal [1]	binding signal (GST-Co-NF-kB)	binding signal (GST-Dm-Relish)	binding signal (GST-Aq-NF-kB)
CCGATTAACATCAACGTAGTGCGTGATGTTAATCGGGTCTTGATTCGCTTGACGCTGCTG	-0.0186 z-score	-0.222 z-score	-0.108 z-score	-0.13 z-score	-0.185 z-score
CCGATTAACATCAGCCCGTTCTATGATGTTAATCGGGTCTTGATTCGCTTGACGCTGCTG	0.153 z-score	0.361 z-score	-0.202 z-score	-0.509 z-score	-0.085 z-score
CCGATTAACATCACGAAGCTCATTGATGTTAATCGGGTCTTGATTCGCTTGACGCTGCTG	-0.516 z-score	-0.666 z-score	-0.674 z-score	-0.818 z-score	-0.511 z-score
CCGATTAACATCATAAACTCTCTTGATGTTAATCGGGTCTTGATTCGCTTGACGCTGCTG	-0.487 z-score	-0.461 z-score	0.197 z-score	-0.0446 z-score	-0.33 z-score
CCGATTAACATCAGTCCATTCTCTGATGTTAATCGGGTCTTGATTCGCTTGACGCTGCTG	-0.496 z-score	-0.42 z-score	-0.33 z-score	-1.02 z-score	-0.273 z-score
CCGATTAACATCAGGGGAAACCCTGATGTTAATCGGGTCTTGATTCGCTTGACGCTGCTG	10.2 z-score	11.4 z-score	7.22 z-score	10 z-score	9.57 z-score
CCGATTAACATCATAGACCACATTGATGTTAATCGGGTCTTGATTCGCTTGACGCTGCTG	-0.116 z-score	-0.384 z-score	0.33 z-score	-0.563 z-score	-0.495 z-score
CCGATTAACATCAAACTAAAACATGATGTTAATCGGGTCTTGATTCGCTTGACGCTGCTG	-0.295 z-score	0.151 z-score	0.0936 z-score	-0.42 z-score	-0.498 z-score
CCGATTAACATCAGGGATCCCCCTGATGTTAATCGGGTCTTGATTCGCTTGACGCTGCTG	12 z-score	10.2 z-score	5.15 z-score	11.1 z-score	10.3 z-score
CCGATTAACATCACGCAGTGTTATGATGTTAATCGGGTCTTGATTCGCTTGACGCTGCTG	-0.338 z-score	-0.778 z-score	-0.725 z-score	0.000736 z-score	-0.462 z-score
CCGATTAACATCAGGATAGATGGTGATGTTAATCGGGTCTTGATTCGCTTGACGCTGCTG	0.0685 z-score	-0.0173 z-score	0.954 z-score	-0.0705 z-score	-0.294 z-score
CCGATTAACATCACAGCAGTACCTGATGTTAATCGGGTCTTGATTCGCTTGACGCTGCTG	0.401 z-score	0.442 z-score	-0.731 z-score	0.6 z-score	0.333 z-score
CCGATTAACATCACCCGTTAGCTTGATGTTAATCGGGTCTTGATTCGCTTGACGCTGCTG	0.318 z-score	-0.0506 z-score	0.701 z-score	0.697 z-score	0.45 z-score
CCGATTAACATCACGGAATTTTCTGATGTTAATCGGGTCTTGATTCGCTTGACGCTGCTG	-0.0241 z-score	0.481 z-score	0.808 z-score	1.06 z-score	2.35 z-score
CCGATTAACATCATGAGCAGGGATGATGTTAATCGGGTCTTGATTCGCTTGACGCTGCTG	0.999 z-score	-0.399 z-score	0.511 z-score	-0.343 z-score	0.0795 z-score

From publication PMC5700166
